Experimental data: the RNAGym collection of RNA variant scans (doi:10.7554/elife.90254)
Read counts are not given, so values of variants with three or more changes are uncertain.

B1: LINE1-mini (parent)
chain: GGCAGAGCUCAACACAGCGUGGCAAAGUGGCUGUGGCUAGACUGCC

Variants of: B1
Experiment: self-cleavage, relative activity (ratio to wild type); higher = more cleavage; in vitro, sequencing; the parent is a self-cleaving ribozyme

Variant	self-cleavage
GGCAGAGCUCAACACAGAGUGGCAAACUGGCUGUGGCUAGAGUGCC	0.02
GGCAGAGCCCAACACAGCGUGGCAAAGUGGCUGUGGUUAGACUGCA	0.01
GGCAGAGCUCAACACAGCGUGGCCAAGUGGCUAUGGCUUGACGGUC	0.01
GGCAGAGUUCAACACAGCGUGGCAAAGUGGCUGUGGAUAGACUCUC	0.01
GGCAGACCUCAACACAGCGUGCCAAAGUGGCUGUGGGUAGACUGCC	0.01
GGCAGAGCUCAACACAGCGUGGCAAAGUCUCUUUGGCUAGACCGCC	0.02
GGCAGAGUUCUACACAGCGUGGCAAAGGGGCUGUGGCUAGACUGCC	0.03
GGCACAGCUCAACACAGCGGGGCAAAGUGGCUGUGGCUAGACAGCA	0.11
GGCAGAGCUCAGCACAUCGUGGCAAAGUGGCUGUCGCUGGACUGCC	0.01
GGCAGAGCUCAACUCAGCGCGGAAAAGUGGCUGUGGCUAGACUGCC	0.59
GGCAGAGGUUAACACAGCGUGGCAAAGUGGUUGUGGCUAGACUGCC	0.03
GGCGGACCUCGACACAGCCUUGCAAAGUGGCUGUGGCUAGACUGCA	0.01
GGCAUAACUUAACACAGCGUGGCAAAGUGGCUGUGGCUAGACUGCC	0.1
GGCAGAGCUGAACAAAGCGUGGCAAAGUGGCUGUGGCUCGACUGAC	0.09
GGCAGAGCUCAACACUGCGUGACAAAGUGCCUGUGGCUAGGCUGCC	0.08
GGCAGAGCUCAACACAGCGUGGUAAAAUGGCUGUGGCUAGACUACC	0.21
GGAAGAGCUCAACUCAGCGUGGCAAAGUGGCUGUGGCUAGACCGCC	0.43
GGCAAAGCUCAACACAGCGUUGCAAAGUUGCUGUGACUAGACUGAC	0.12
GGCAGAGCUCAACAAAGCGUGUCGAAGUGGCUGUGGCUAGACCGCC	0.01
GGCAGAGCUCAACACAGCGUGUCAAAGUGGCCGUGGCUAGACGGCC	0.03
GGCAGAGCUCAUCACAGCGUGGCAAAGUGGAUGUAGCUAGACUGCC	0.03
GGCAGAGCUCAAUCCAGUGUGGGAAAGUGGCUGUGGCUUGAGGGCC	0.01
GGCAGAGCCCAACACAGCGUGGCAAAGUGGCUGUCGCUAGUCUGCC	0.04

Variant	self-cleavage
GGCAGAGCUCAACACAGCGUGGCAAAAUGGGGGUGGCUAGACUGCC	0.04
GGCAGCGCUCAACGCAGUGUGGCAAAGUGGCUGUGGCUAGACUGCC	0.08
GGCAGAGCAUAAUACAGCGUGGCAAAGUGGCUGUGGCUAGACUGCC	0.12
GGCAGAGAUCAACACAGCGUGUCAAAGUGGCUGUGGCUAGACCGCC	0.13
GGCAGAUAUAAACACAGCGUGCGAAAGUGGCUGUGGCUAGACUGCC	0.03
GGCAGAGCUCAACACGGCGUGACAAAGUGGCUGUCGCUAGAACGCC	0.02
GGCAUAGCUCAACACAUCGUGGCCAAGUGGCUGUGGCUAGACUGCC	0.08
GGCAGAGCUCAACACAGUGUGCCAAUGUGGCUGUGGCUAGACUGCC	2.1
GGCAUAGCAAAACACAGCGUGGCAAAGUGGCUGUGGCUAGACUGCC	0.05
GGCAGAGCCCAACACAUCUCGGCAAAGUGGCUAUGGCUUGACUGCC	0.01
GGUAGAGCUCAACAAAGCGUGGCAAGGUGGCAGUGGCUAGACUGGC	0.07
GGCAGAGCUCAAUACAGCGUGGCAAAGUGGCUGUGGCUCGACCGCC	0
GGUAGAGCUCAAAACGGCGUGGCAUAGUGGCUGUGGCUAGGCUGCC	0.02
GGCAGACCUAAACACAGCGUGGCAAAGUGGCUGUGGCUAGACUCCC	0.01
AGCAGAGCUCAACGCAACGUGGCAAAGCGGCUGUGGCUAGACUGCC	0.04
GGCAUAGCUCAACACUGCGUGGCAAAUUGGCUGUGGCUAGACUGCC	0.18
GGCAGAGCUGAACACAGCGUGGCAAAGUGGCUGAGGCUAGAGUGCC	0.01
GGGAGAGCUCAACACAGCAUGACUAAGUGGGUGUGGCUAGACUGCC	0.15
GGCAGGGCUCAACACAUCGUGGCAAAGUGGCUGUGACUAGACUGCC	0.02
GGCAGAGCUCAACAAAGCGUGGCACAGCGGCUGUGGCUAGACUGCC	0.03
GGCUGAGCUCAACACAGUGUGCCAAAGUGGCUGUGGCUAGACUGCC	0.04
GGCAUAGCUCCACACACCGUGGCAAUGUGGCUGUGGCCAGACAGCC	0.04
GGCAGUGCUCAACACAGCGUGUCAAAGUGGCUGUGGCUAUACUGCC	0.5

Variant	self-cleavage
GGCAGAUCUAAACACAGCGUGGCAAAGCGGCUGUGGCUAGACUGCC	0.03
GGCGGAGCUCAACACAGCGUGGCAAAGUGGCUGGGCCUAGACUGCC	0.02
GGCAGAGCUCAACACAGCGUGGCAAAGUGACUAUGGCUAGACUGCA	0.13
CGCAGAGCUAAACACAGCGUGGCAAAGUGGCUGUGGCAAGACUGCC	0
GGCAGAGCUCAACACAGCGUGGCAAAAUGGCUGCGGAUAGACUGCC	0.04
GGCAGAGCGCAACACAGCGUGGCAUAGUGGCUGUGGCGAGACUGCC	0
GGCAGAGCUCAAUACAGCGUGGCAAAGUGGAUGUCGCUAGACUGCC	0.03
GGAAGAGCUCAACACAUCAUGGCAAAGUGGCUGUGGCUAGACUGCC	0.14
CGCAGAGCUCAACAUAGCGUGACAAAGUGGCUGUGGCUAAACUGCC	0.02
GGCGGAGCUCAACACAGCCUGGCAAAGUGGCUGUGGCUAGCCUGCC	0.02
GGCAUAGCUCAAUACAGCGUGGCAAAGUGACUGUGGAUAGACUCCC	0.12
GGCAGAGAUGAACACAGCGUGGCAAAGUGGCUGUGGCUAGAGGCUC	0.03
GGCAGAGCUCAAGACAGCGUGGCAAAGAGGCUAUGACUAGACUGCC	0.02
GGCAGAGCUCAACACAGCAUGGGAAAGUGGUAGUGGCUAGACUGCC	0.11
GACUGAGCUGAACACAGCGUGGCAAAGUGGCUGUGUCUAGACUGUC	0.02
GUGAGAUCUCAACACAGCGUGGCAAAGUGGCUGUGGCUAGAUUGCC	0.08
GGCAGAGCUCAACACAGCAUGGCAUAGUGGCUGUGGCUAUCCUGCC	0.62
GGCAGAGCGCACCACAGCGUGGCAAAGUGGCUUUGGCUAGACUGCC	0.01
GGCAGAGCUCAACACAGCGUGGUCGAGUGGCUGUGGCUAGACUGCC	0.96
GGCAGAGCUCACCUUAGCGUAGCAAAGUGGCUGUGGCUAGACACCC	0.01
GGCAGAGCUCCACACAGCGUGGCAAAGUGGCUGUGACUAGACUCCC	0.02
GGCAGAGCUAAACACAGAGUGGCAACGUGGCCGUGUCUAGACUGCC	0
GGCAGAGUUCCACACAGCGUGGCAAAGUGGCUGUGGAUAGACUGCC	0.01

Variant	self-cleavage
GGCAGAGCCCAAGACAGCGUGGGAAAGUGGCUGUGGCUAGACUGCC	0.03
GGCAGAGCUCAACUCAGCGUGGCAUAGUCGCUGUGGCUAGACUGCC	0.54
CGCAGAGCUCAACACAGCGUGGCAGAGUGGCUGUGGCUAGAAUACC	0.01
UUCAGAGAUCAACACAGCGUGGCAAAGUGGCCGUGGCUAGACAGCC	0.01
GGCAGAGCUUAACACAGCGUUGGAAGGGAGCUGUGGCAAGACUGCC	0.01
GCCAGAGCUCAGCACAACGUGGCAAAGUGCCUGUGGCUAGACUGCC	0.05
GGCAGAGCUCAACACAGCGUGGCAAAGUGGGUGUGGAUAGACUACU	0.07
CGCAGAGCUCAACACAGCGUGGCAUAGUGGCUGUGGCUAGAAUGCC	0.01
GGCAGUGCUCAACACAGCGAGGCAAAGUGGCUGUGGCUCGACUGCC	0.28
GGCAUAGCUCAAAACAGCGUGGCAAAGUGGCUGUGGCUACACUGCC	0.02
GGCAGAGCUCAACACAGCGUGGCAAAGUAGCUGUAGCUGGACUGUC	0.05
CGCAGCGCUGAACACAGCGCGGCAAGGUGGCUGUGGCUAGACUGCC	0.01
GGCAGAGAUCACCACAGGGUGGCAAAGUGGCUGGGGCUAGACUGCC	0.05
GGCAGAGCUCAACACAGCGGGGCAAAGUUGCUGUGGCUAUACUGCC	0.05
GUGAGAGCUCUACACAGUGUAGAAAAGUGGCUGUGCCUAGACUGGC	0.01
GGCAGAGAUCAACACAGCGUGGCAGAGUGGCUGUGGCUAGACUGGC	0.57
GGCAGUGCUCAGCACAGCGUGGCAAAGAGCGUGUGGCUAGACUGCC	0.01
GGGAGAGCUCAACACAGCGUGGCAUAGUGGCUGUUGCUAGACUGCC	0.62
GGCAGAGCUGAACACAGCGUGGCAAAGUGGCUGUGGCUAUAGUGCC	0.04
GGCAGAGCUCAACAGGGCGUCGCAAAGUGGCUGUGGCGACACUGCC	0.01
GGAAGAGCUCACCACGGCGUGACGUAGUGGCUGUGGCUAGACUGCC	0.02
GUCAGAGCUCAACACAGCGUCGCAAAGUGGCUGUGGCUAGACUGCG	0.04
GGCAGAGGUCGACACAGCGCGGCAAAGUGGCUGUGGCUAGACUGCC	0.02

Variant	self-cleavage
GGCAGAGCUCAACACAGCAUGGCAACUUGGCUGUGGCAAGACUGCC	0.69
GGCAGAGCGCAACACAGCGUCGGAAAGUGGCUGAGGCCAGAAUGCC	0.02
GGCAGUGCUCAACACAGCGUUGCAAAGUGGCUGUGGCUAGACCGCC	0.05
GGCAGAGCUCAACACAGCUUGGCAAAGUGGCUGUGGCUGGAAUGCC	0.02
GGCUGAGUUCAACACAACGUGGCAAAGUUGCUGUGGCUUUACUGAC	0.04
GGCAGUGCUCAACGCAGCGUGGAAAAGUGGCUGUGGCUAGACUUCC	0.25
GGCAGAGCUCAACAAAGCGUGGCUAAGAGGCUGUGGCUAUACUGCC	0.08
GGCAGAGCUGAACACAGCGUGGCAAAGUGCCUAUGGCUAGACUGCC	0.02
GGCAGAGCUCAACAAAGCGUGGCAUAGUGACUGUGGCUAGACUGGC	0.05
GGCAUAGCUCAACACAGCAUGACAAAGUGGCUGUGGCUAGGCGGCC	0
GGCAGAUCUCAACACAGCGUGCAAAAGUGGCUGCGGCCAGACUGCC	0.23
GGCAUAGCUCAACACAGCGUGGCAAAGUGGCUGUGGCAGGACUGCC	0.03
GGCAAAGCUCAACACACCCUGGCAAAGUGGCUGUGGCUAGGCUGCC	0.03
GGCAGAGCUCAAAACCGCGUGGAAAAGUGGCUGUGGCUUGACUGCC	0.03
GGCAUCGCUCAACACAGCGUGGCAAAGUGGCAGUGGCUAGACUGCC	0.05
GGCAGAGGCCAACACAGCGUGGCAAAGUGGCUGUGCCUAGACUGCC	0.04
GGGAGAUAUCAACAUAGCGUGGCAAAGUGGCUGUGGCUAGACUGCC	0.79
GGCAGAGCUCAACACAGUUUGGCAAAGUGGCAGUGGCUAGACUGCC	0.01
GGUAGACCUCAACACCGCGUGCCAAAGUGGCUGUGGCUAGACUGCC	0.04
GGCAGAGCUCAAAUCAGCGUGGCAAAGUGGCUGUGGAUAGAUUGCC	0.05
